± gives the standard deviation of the averaged measurements. The list shows a part of the results.
What follows are sequences tested on PfAP2-G AP2 domain (GST-tagged) (assay: gcPBM binding intensity (ln(normalized median fluorescence intensity)); higher = stronger DNA binding).
Outline: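 An Agilent 4 × 180k array of primer-extended double-stranded 36-bp intergenic genomic probes, with negative controls, was incubated for 1 h with GST-tagged P. falciparum DNA-binding domains expressed in E. coli. Alexa488 anti-GST antibody detected bound protein, scanned at 488 nm. Binding intensity is the highest Masliner-normalised natural-log median intensity across replicate spots of either probe orientation.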

Sequence	gcPBM binding intensity (ln)
AGTTTAATATAAAATACACACTACTCTTATAAATAT [CACACA_site6803]	9.87 ± 0.085
GAAATAATAAATTAAAAATCGTTTATAACATTTAAC [CACACA_negctrl_site425]	9.44 ± 0.16
ATTTTCTTTCTATGCACACGCACGTATTTGCACCCA [CACACA_site3350]	11 ± 0.71
AGTAATATAATATAAGCACACGTGTATTTATTTAGT [CACACA_site4246]	10.3 ± 0.16
TGGGAGCACAGACACACACACACACCCATATATATA [CACACA_site335]	10.4 ± 0.22
TACAAAATAAAAATAATTCTTTCAAAAAATAATAAA [XGTACX_negctrl_site368]	9.49 ± 0.18
TGCACATTTATGTAACGTACAAAATATAATATGTTA [XGTACX_site8255]	11 ± 0.38
GTATAAAAGTAATGTAGTACTTATATATTTTTATTT [XGTACX_site8975]	11.4 ± 0.69
TCCTTATATTGGCACACACACACAATAAAATGAAAA [CACACA_site4715]	10.5 ± 0.52
GGTTGCTTCAGTGAATGTACATAGTGGTAAACAAGC [XGTACX_site166]	11.1 ± 0.58
AAAAAAAAAAGAAACACACACATATATATATATAAT [CACACA_site5052]	9.67 ± 0.042
TATATATATTCTTTAAAACACACGTAAAGAAGAATT [CACACA_site2718]	10.18 ± 0.099
ATAAGTGTATAAAAATGTACGTGTATAAAAATATGT [XGTACX_site8235]	11.3 ± 0.66
CATTTATTTATATACACACACACAAAAAAAAAAAAA [CACACA_site7279]	9.96 ± 0.35
TGCTATATTATTATCGCACACCGTTGATTCTAAATA [CACACA_site1207]	9.805 ± 0.078
TATTTTTTATTTTTTTGTACATATTTGATAATTAAT [XGTACX_site316]	11 ± 0.54
GTAAGCATCAAAAAAGGTACAGAAATTATAAATAAA [XGTACX_site6708]	11.1 ± 0.78
AAATATTTATATATATGTACACATATAATATTTTTA [XGTACX_site2338]	11.3 ± 0.73
TTTTTAATTTAAAAAAATAATATTTTATATTCCGAA [CACACA_negctrl_site108]	9.53 ± 0.099
ATATATGTTATTATTTGTACACACACATATATATCC [XGTACX_site7657]	11.3 ± 0.79
GAAAATTTATTTTTGGTGCATGTATTTATTTATTTT	9.825 ± 0.049
ATTTCTAATATTTTTGCACACTAAACAATAAATTTC [CACACA_site3943]	10.2 ± 0.14
AAAACAAATAAGTAAACACACATATATAATATATAT [CACACA_site2586]	9.775 ± 0.049

Sequence	gcPBM binding intensity (ln)
AAAAAAAAAAAAACTAGTACATATATATAGTATGAA [XGTACX_site6279]	11.1 ± 0.6
ATAACCTAATAATACACACACATGAATATATATAAT [CACACA_site4689]	10.05 ± 0.099
CTTTTTTTTTTATGCACACACAATTATACATTCCTT [CACACA_site3877]	10.4 ± 0.33
AATATAGTCTCACATACACACATATATATTTATATA [CACACA_site2503]	10.02 ± 0.042
ATGTAATATATTATATGTACATATTTTTATGTAGAT [XGTACX_site5945]	11.3 ± 0.87
GAATATAAAAGGAACGGTACAGAAAAAAAAAAAAAA [XGTACX_site3917]	10.6 ± 0.65
TTTATTTTTTATATATCACTTAAAAAAAAAAAAAAA [CACACA_negctrl_site249]	9.7 ± 0.42
ATTTATATTTTATATACACACATGAACTTATATGGA [CACACA_site3167]	10.1 ± 0.15
AAAGATAAAATATATACACACACATAAATACGTACA [CACACA_site8275]	11.3 ± 0.88
ACAAGTGTATATGTTATATATATATATATATATATA [CACACA_negctrl_site1686]	10.3 ± 1
TTATTACGAACTCTGCAACATATATAAATAAATAAA [CACACA_negctrl_site44]	10 ± 0.35
AAAATAATATTTAATACACACATAATTACAATATAA [CACACA_site6510]	9.925 ± 0.049
TACGTATTCATGTATAGTACTCTTTTTTTTAATAAA [XGTACX_site3299]	11.1 ± 0.71
CTTATATTAATTATTACACACATATATATAAATGCA [CACACA_site770]	9.92 ± 0.085
AAAGAAAATAGGTGTACACATAATAAATACAGCTAT [CACACA_site5917]	11.7 ± 1.1
ATTATATTTGAATGGTGTACTATAATAATGTAGTTT [XGTACX_site8069]	11.2 ± 0.72
ACATATATATATATATAAATATATATGTATGTATTT [XGTACX_negctrl_site237]	10.1 ± 0.27
GAATAAATTAAATTCACACATAAAATACAAAATACA [CACACA_site5495]	9.955 ± 0.078
CATACACGCGGACACACACACACACGCATATATAAC [CACACA_site6427]	11.5 ± 0.87
TTCATTTTATAAAAAGCACACATATAGTTATATGCA [CACACA_site9228]	9.79 ± 0.13
AGTTTACATTAAATCACGCACACAAAAAAAAAAAAA [CACACA_site2419]	10.2 ± 0.49
ATGTCATATATATGTTGTACGAGTTTGTTTATGTAT [XGTACX_site1150]	11.2 ± 0.68
ATTCATATTTTTCAAGTGCGCATTAAAATATTAACC [GTGCAC_site9741]	10.3 ± 0.3

Sequence	gcPBM binding intensity (ln)
TACCTTTTTTATGTTGCACACTGGGATGTTTTCTAA [CACACA_site1653]	10.3 ± 0.15
TTTCGATTATGTTTTTGTACGCAATATATTAATTCT [XGTACX_site3634]	11.5 ± 1
AATATATTTTTTTTTGGTACACAAGCACATCTATAC [XGTACX_site2183]	11.3 ± 0.85
AATGTGCAGAAAAGTGGTACATATGATTGTTAAGAG [XGTACX_site1038]	11.5 ± 0.8
CCATGATTATTAGATTGTACATAACATACAAATTGA [XGTACX_site314]	10.8 ± 0.48
TTAAAAATAAAACAAAGTACTCAAGTTATTGTCTTT [XGTACX_site1584]	11.2 ± 0.54
TATGATATGTATGGAAGTACGAAGAGGGATGATCAG [XGTACX_site1677]	10.7 ± 0.27
CACGCATACAGACACACACACACACCCATATATATA [CACACA_site636]	10.4 ± 0.31
CGTAAATTTTTCTAAGTGCATGTTAATTTTTCAATT	10.1 ± 0.17
TAAATACCTATATGGCGTACTATTATCATAGTATAT [XGTACX_site5423]	11.2 ± 0.77
TATTTATTATGATACTCATATTATTCTATGATTAAA [GTGCAC_negctrl_site486]	10.2 ± 0.2
GCACAAATCATCAAATGTACAGAAAATGCTGTCAAT [XGTACX_site5037]	10.8 ± 0.49
TTCCTTCATTGGAAAAGTACACAATATTGTCGTTTA [XGTACX_site8057]	11.6 ± 0.99
ATATAGGTATAATACACACACTAATATGTAACTGTA [CACACA_site7011]	9.98 ± 0.085
ATTTTCAAATTAAAATGTACAAATGAAAGAAAGGGA [XGTACX_site7048]	10.7 ± 0.55
TGAAATAAAATTTGTACACACATATATATATATATA [CACACA_site586]	11.1 ± 0.81
GTGAATCCTAAGTGTACACATCTTACAGATATATAT [CACACA_site4836]	11.6 ± 0.82
AACAGACATACATACACACATACATACAGACATACA [CACACA_site1942]	10.2 ± 0.26
ATATATATATATTTCGCACACATAATCTTATTAAAT [CACACA_site2579]	10.2 ± 0.3
TAAAATAAAACAAACACACACACACCGACACAAAAA [CACACA_site5993]	10.4 ± 0.33
TTTCTTAAATATATGCGTACTCAAAATTGTTCTACA [XGTACX_site7995]	11.5 ± 0.93
AAAAATATAATATAATGTACACATAAACAAAAAAAA [XGTACX_site3658]	11.4 ± 0.84
TAACCACAAAAATAAAATCAAAAAAAAAAAAAAAAA [CACACA_negctrl_site1727]	9.46 ± 0.18

Sequence	gcPBM binding intensity (ln)
TATATATCAATATACACACACACATATTTATTTATA [CACACA_site6858]	10 ± 0.14
ACATTCTATACATACACACCCACACCCAAAAAAAAA [CACACA_site863]	10.6 ± 0.49
AACGCAGTTTAATATACACACCAAAAAAAAAAAAAG [CACACA_site5643]	10.1 ± 0.31
TTTCCTTTTTTAATATGTACACATATTATTATATCT [XGTACX_site3079]	11.4 ± 0.83
ATATATTCTTATTGCTGTACACATATTTTCTAAAAA [XGTACX_site4851]	11.5 ± 0.95
TACTATGCCCCATATAAACACACAAATAAAAAGAAT [CACACA_site8857]	10.2 ± 0.21
TATAAACCTACATACACACATACAATAAGTAAAATG [CACACA_site1921]	10.2 ± 0.23
ATGTATCATAAGAACTGTGTGGTTACAGACACGAAC [GTGCAC_negctrl_site416]	10.5 ± 0.25
AACTATATATATAATTCACACATGTTTTAAAATTTT [CACACA_site4971]	10 ± 0.028
CTATGCATTTATAGTGCATGTAAAATATAAGATAAT [TGCATGCA_site71]	9.88 ± 0.13
TATAATTAATTAGAAGTGCATTAGGTAACAACTGTC [GTGCAC_site9746]	10.4 ± 0.3
TTATATTAAACAAACACACACATATATATATATATA [CACACA_site2382]	10.2 ± 0.63
TTAACAAATGGACACACACACACACCCAAAAAAAAA [CACACA_site4443]	11 ± 0.77
TTTATAAAAAATTTTTTTTTTTTTTTTTAAATATAT [CACACA_negctrl_site146]	9.5 ± 0.3
TATATATATATTTATACACACATTAGTGTATCCATG [CACACA_site5609]	10.2 ± 0.27
TGTTACATATTATAAATACATTAACTATTATATGTA [CACACA_negctrl_site1735]	9.56 ± 0.26
TATATATATATATATTGTACATATTGTATATATTGT [XGTACX_site3212]	10.8 ± 0.28
ATATATATATATATATGTACATATATATATTTTTTA [XGTACX_site5987]	11.3 ± 0.66
TTGGCATACAGACACACACACACACGCCCACATATA [CACACA_site6425]	10.6 ± 0.34
TTTTTTTTTTGTAGTTGTACGAACTAGCTATTTATG [XGTACX_site692]	11.2 ± 0.76

Source: the supplement of paper PMC11417369
